# Source: PubChem BioAssay AID1347417 (National Center for Advancing Translational Sciences (NCATS), 2020)
# Among all 120,000 compounds or so, about 5,300 (4.4%) were called active. The inconclusive results got no clear call from the source; some entries with a clear call stand among them for comparison. Calls follow the shape of the dose curve; as a rule, active = well fitted inhibition curve with a large enough effect; inconclusive = small, poorly fitted or top-dose-only effect; inactive = no such curve, though single readings can be large or run the other way. Potencies beside an inconclusive call are fits to weak or partial responses and may not hold up.
# Assay: qHTS Primary assay for Inhibitors of Plasmodium falciparum Dd2 growth in vitro; also: nearly all actives have a fitted effect of over 65% in size
# Details: P. falciparum Dd2 growth, SYBR Green, 72 h; series mostly up to 28.9 µM
# Method in brief: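 Infected erythrocytes (Dd2, 0.3% parasitemia, 2.5% hematocrit final) are added to compound in RPMI-1640/Albumax II medium, grown 72 h at 37C in low oxygen, then lysed with saponin/Triton-X containing SYBR Green and read by fluorescence.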
# Potency is read from the fitted curve at half-maximal effect; tags tell the direction and shape of the fitted curve.
row,Structure (SMILES),Potency
1,COc1ccc(N2CCN(c3nc(C(=O)N4CCN(C)CC4)cs3)CC2)cc1,"inconclusive: 11.2 µM [inhibitor, single point]"
2,O=C(Nc1c(C(=O)N2CCN(c3ccccc3F)CC2)oc2ccccc12)c1cccc(F)c1,"inconclusive: 10 µM [inhibitor, single point]"
3,COc1ccc(C2=CC(c3cc(Br)ccc3F)n3c(nc4ccccc43)N2)cc1 (stereo not given),inactive
4,Cc1ccc(C2Cn3nnc(C(=O)NC4CCN(Cc5ccccc5)CC4)c3CO2)cc1 (stereo not given),"inconclusive: 1.78 µM [inhibitor, partial curve, poor fit]"
5,CNC(C)c1ccccc1F (stereo not given),inactive
6,COc1cc(Nc2nc(SCc3ccc(Cl)cc3)nc3ccccc23)cc(OC)c1,"inconclusive: 17.8 µM [inhibitor, single point]"
7,O=C1CCN(C(=O)C2CCN(C(=O)c3ccco3)CC2)CCCCCCN1,inactive
8,Cc1ccc2nc(C3CCN(c4cc(C5CC(O)C5)ncn4)CC3)[nH]c2c1 (stereo not given),"inconclusive: 8.91 µM [inhibitor, single point]"
9,CC(=O)Nc1ccc(CN2CC(Oc3ccc(F)cc3F)C2)cc1,"inconclusive: 8.91 µM [inhibitor, single point]"
10,COc1cccc(C(=O)Nc2nc3nc(-c4ccccc4)cc(=O)n3[nH]2)c1,inactive
11,O=C(NC1CCCCCC1)c1csc(N2CCN(c3ccccc3)CC2)n1,"inconclusive: 17.8 µM [inhibitor, single point]"
12,O=C(CC1CCN(C(=O)Nc2cccc(F)c2)C1)NC1CC1 (stereo not given),inactive
13,O=C(CN1CC2CC(C1)[C@H]1CCCC(=O)N1C2)N1CCN(c2cccc(Cl)c2)CC1 (stereo not given in full),"inconclusive: 17.8 µM [inhibitor, single point]"
14,COc1ccc(OC)c(CNC(=O)C2CCCN(c3ncnc4onc(-c5ccc(F)cc5)c34)C2)c1 (stereo not given),inactive
15,COc1ccc2c(c1)C=C(CN1CCCn3nc(C(C)O)cc3C1)CO2 (stereo not given),inactive
16,COc1ccccc1C(=O)Nc1ccc2nc(SCCOc3ccccc3C)sc2c1,"inconclusive: 0.708 µM [inhibitor, partial curve, poor fit]"
17,CNC(=O)N1CCC(C2CCN(Cc3ccc(Br)o3)C2)CC1 (stereo not given),"inconclusive: 6.31 µM [inhibitor, partial curve, poor fit]"
18,Cn1nccc1C(O)c1cc2n(n1)CCN(CC(=O)NCc1ccco1)C2 (stereo not given),inactive
19,COc1cc(C(=O)Nc2ccc(NC(=O)c3ccc(C(C)(C)C)cc3)cc2)cc(OC)c1OC,inactive
20,O=C(NCc1ccc(Cl)cc1)[C@@H]1Cc2nc[nH]c2CN1Cc1ccc(Cl)cc1,"inconclusive: 20 µM [inhibitor, partial curve, poor fit]"

row,Structure (SMILES),Potency
1,COCCCNc1ncnc2c1CN(c1ccccc1)C(=O)CN2C,"inconclusive: 20 µM [inhibitor, single point]"
2,Cc1cccc(C(=O)N2CCN(C(=O)c3nnn4c3COC(c3ccc(F)cc3)C4)CC2)c1 (stereo not given),"inconclusive: 10 µM [inhibitor, single point]"
3,Cc1cccc(CNC(=O)c2ccc(N3Cc4ccccc4Oc4ncccc43)s2)c1,"inconclusive: 17.8 µM [inhibitor, single point]"
4,CN(C)c1cccc(C(=O)N2CCC(c3c[nH]c4ccccc34)(c3c[nH]c4ccccc34)CC2)c1,active: 3.98 µM
5,O=C1N(C2CCCCC2)C[C@H]2CN(S(=O)(=O)c3ccccc3)CCN12,"inconclusive: 31.6 µM [inhibitor, single point]"
6,O=C(c1cc2ccccc2[nH]1)N1C[C@@H](CO)[C@H](c2ccccn2)C1,"inconclusive: 2.82 µM [inhibitor, full curve]"
7,C[S+](=O)([O-])N1CC2(CCN(Cc3cccnc3)C2)Cc2ccccc21 (stereo not given),"inconclusive: 12.6 µM [inhibitor, partial curve, poor fit]"
8,O=C(Nc1cccc(-c2nnc3n2CCCC3)c1)Nc1ccccc1F,inactive
9,CC1=C[C@@H](CNC(=O)C(C)(C)C)[C@H](C(C)C)C[C@H]1CC(=O)N(C)Cc1cccnc1,"inconclusive: 20 µM [inhibitor, single point]"
10,Cc1ccc2c(N3CCC(CO)(CN4CCCC4)CC3)ccnc2c1C,"inconclusive: 3.55 µM [inhibitor, partial curve, poor fit]"
11,OC1CCN(c2cc(N3CCOC(c4ccc(F)cc4)C3)ncn2)CC1 (stereo not given),"inconclusive: 0.282 µM [inhibitor, full curve, poor fit]"
12,COc1ccc(OC)c(C(=O)CC2(O)C(=O)N(Cc3ccccc3C)c3ccccc32)c1 (stereo not given),"inconclusive: 10 µM [inhibitor, partial curve, poor fit]"
13,CN(C)c1cccc(C(=O)NC2CCN(c3cc(-c4ccccc4)[nH]n3)C2)c1 (stereo not given),"inconclusive: 11.2 µM [inhibitor, partial curve, poor fit]"
14,CC1Oc2ccc(NC(=O)c3c(F)cccc3F)cc2CN(Cc2ccc(Cl)cc2)C1=O (stereo not given),"inconclusive: 3.55 µM [inhibitor, full curve]"
15,Cc1cc(C(=O)N2C[C@@H](CO)[C@H](c3ccncc3)C2)c(C)o1,"inconclusive: 2.51 µM [inhibitor, single point]"
16,COCCN1C(=O)[C@@H]2C[C@@H](CN2Cc2ccc(OC(F)(F)F)cc2)Oc2ccccc21,"inconclusive: 6.31 µM [inhibitor, partial curve, poor fit]"
17,NC1CC(c2cc(N3CCC(OCc4ccccc4)CC3)ncn2)C1 (stereo not given),"inconclusive: 11.2 µM [inhibitor, single point]"
18,COc1ccc(-c2nc(SCC(=O)Nc3ccc4c(c3)OCCO4)c(-c3ccc(F)cc3)[nH]2)cc1,"inconclusive: 10 µM [inhibitor, single point]"
19,O=C(NC1CC(c2cc(NCCO)ncn2)C1)c1cc2ccccc2[nH]1 (stereo not given),"inconclusive: 10 µM [inhibitor, single point]"
20,Cc1cccc(C(C)C)c1NC(=O)Cn1c(=O)oc2cc(S(=O)(=O)N3CCCC3)ccc21,"inconclusive: 5.62 µM [inhibitor, partial curve, poor fit]"
